Source: the supplement of paper PMC3334620
The full ranking holds about 33,000 sequences; the median of “E-score (-0.5 to 0.5)” is about -0.01, and the highest 2% start at about 0.26. This is one part of the list.

Biological target: Ste12 (UniProt P13574)
Experiment: PBM E-score (8-mer binding enrichment) (E-score (-0.5 to 0.5)); higher = stronger / more preferred TF binding; most listed sequences are background and not binding sites
Settings: protein concentration: 200 nM; construct: GST-DNA-binding domain
Method in brief: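 PURExpress in vitro transcription/translation supplied GST-tagged yeast transcription factors, either full-length or DNA-binding domain. Applied at about 100-200 nM to universal all-10-mer Agilent arrays double-stranded by primer extension, the bound protein was detected with fluorescent anti-GST. E-scores, modified Wilcoxon-Mann-Whitney statistics, were given by the Universal PBM Analysis Suite to ungapped eight-base words pooled with their reverse complements after masliner normalisation.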

Row | Sequence | PBM E-score
1 | AGCCGCGG | 0.0939
2 | GCTAGGCA | -0.263
3 | ACACCTTC | 0.0213
4 | GGGGGAGA | -0.0338
5 | ATACACAA | 0.283
6 | AAACGGGG | 0.114
7 | CCGGCAGC | 0.117
8 | AGGCTCCG | 0.108
9 | ATCGCAGC | -0.0765
10 | GCTGTAAA | -0.00849
11 | CTACGCAG | -0.152
12 | CGTCTGGC | -0.0363
13 | TCGAGTCA | -0.119
14 | GATATTGA | 0.00369
15 | TAGAAACA | 0.254
16 | CATCTGTA | 0.00385
17 | AGTGGCTC | -0.0837
18 | AAGAACTA | 0.00166
19 | AGGTACAG | -0.0843
20 | CACCAACA | 0.0604
21 | TCACAACA | 0.0814
22 | GAATTTAA | 0.0395

Row | Sequence | PBM E-score
23 | GTCGCCAA | -0.0871
24 | AACTCAGG | -0.108
25 | CGCTGTAG | 0.0406
26 | ATAGCAGG | 0.0382
27 | CGTCTTAG | -0.313
28 | GGGCCGTA | -0.133
29 | AGGAGATA | -0.113
30 | ACGCGGAG | -0.0565
31 | CGGTCCCC | -0.121
32 | GACCAGAC | -0.262
33 | CCGCTCTC | -0.238
34 | ACATGCCA | 0.175
35 | CTCGTCAG | 0.0429
36 | ATTTAGGA | -0.039
37 | AAGAGTCC | -0.214
38 | CAGGCACC | -0.217
39 | GCCTCTGA | -0.0274
40 | ATAATGAA | 0.256
41 | AATAATTC | 0.13
42 | ATCCCTGC | -0.0558
43 | ACCCAGAA | 0.0802
44 | AAATTAGG | 0.142

Row | Sequence | PBM E-score
45 | AGGACTAC | -0.171
46 | TGACGTAA | 0.0343
47 | AGGATTTG | 0.118
48 | CGCCTTGC | -0.0139
49 | AACCATCT | 0.0768
50 | AGTTTAGG | -0.176
51 | CACGATGC | -0.00478
52 | ATGGGTAC | -0.137
53 | TAAAGCGA | 0.0972
54 | ACAAAAGA | 0.0856
55 | GAGCGGTA | 0.0399
56 | CTTCGTCC | -0.148
57 | AGTCCGCA | -0.0664
58 | CGTCCGTC | -0.217
59 | CGATAATA | 0.0256
60 | TAAATTTA | 0.334
61 | AACGTCCG | -0.102
62 | GATCACTA | -0.0969
63 | TCTTGTCA | -0.0323
64 | ATTACAAT | 0.199
65 | ATTCGTCG | 0.0308
66 | AACGTATA | 0.0689

Row | Sequence | PBM E-score
67 | CGCATGAG | -0.00739
68 | CACTCCCA | 0.0996
69 | AAACTACG | -0.0541
70 | AACTAAAA | 0.241
71 | TGGTGTAA | 0.169
72 | CATAGATC | -0.0575
73 | CGGAAAAC | 0.0342
74 | GGACTACA | 0.0802
75 | GCTGATAA | -0.0209
76 | CGTTCGAA | 0.0698
77 | AATGCAGA | 0.0735
78 | CCCCTCGC | -0.106
79 | CACCAGCA | 0.0422
80 | CTCAGCAC | -0.0109
81 | GATCACCA | -0.108
82 | ACGCAACA | 0.208
83 | ATCAAGGC | -0.156
84 | CCGGGGTC | -0.129
85 | ATGGCTGG | -0.0814
86 | ACATCCGT | 0.0583
87 | GTGATGCA | 0.0908
88 | GTTCCCTA | -0.142

Row | Sequence | PBM E-score
89 | ACTACGAA | -0.121
90 | GCTACCTA | -0.041
91 | CCTTCGCA | -0.159
92 | GTGGAGAA | 0.00105
93 | TACGCGTA | 0.0156
94 | CGGGTTGA | -0.037
95 | CCTGGAAA | 0.126
96 | AAACGGCC | 0.0238
97 | ATAGCACA | -0.0228
98 | ACGGTTAC | 0.146
99 | CGTAAACG | -0.234
100 | CTTGGGAC | -0.224
101 | ATGATATA | -6e-05
102 | CTACTCCC | 0.00239
103 | AGGTGTAT | 0.214
104 | ATTTAGTG | 0.238
105 | CCGCAATC | -0.024
106 | AGAGTCTC | -0.00303
107 | CCTTAACA | 0.00646
108 | AGGGGATA | 0.0568
109 | ATTTCTTA | 0.176
